Source: PubChem BioAssay (NCI)
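Interpolation was linear, between the two tested concentrations surrounding the appropriate level; five concentrations were tested over 48 hours in 96-well plates. GI50 marks 50% less growth. TGI: concentration producing complete growth inhibition.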

test system: NCI-H322M lung; assay: growth of human tumour cells (NCI), 48 h

SMILES	TGI [µM]	GI50 [µM]
Cc1cc2nc3c(C#N)c(-c4ccccc4)cc(Nc4ccc(Cl)cc4)n3c2cc1C	> 100	–
Cc1nnc(S(=O)(=O)c2ccc(N=Nc3c(N)nc(N)nc3N)cc2)s1	> 100	–
S=C(N/N=C/c1ccco1)NC12CC3CC(CC(C3)C1)C2	> 100	–
O=C(c1ccc(O)cc1)C1c2c3c(cc(O)c2C(c2ccc(O)cc2)C1c1cc(O)cc(O)c1)OC(c1ccc(O)cc1)C3c1cc2c(cc1O)OC(c1ccc(O)cc1)C2c1cc(O)cc(O)c1 (stereo not drawn)	> 12.5	–
NC(Cc1cccc([N+](=O)[O-])c1)C(=O)O (stereo not drawn)	> 100	–
C=C1CC(c2ccc(OCCCN3C(=O)c4ccccc4C3=O)c(OC)c2)OC1=O (stereo not drawn)	31.5	–
CC/C(=C(/c1ccc(OCCN(C)C)cc1)c1ccc(OC(=O)CCCCC(=O)c2c(C)[nH]c(/C=C3\N=C(c4ccc[nH]4)C=C3OC)c2C)cc1)c1ccccc1	30.6	13.6
NNC(N)Nc1ccccc1 (stereo not drawn)	> 100	–
COc1cc(C2c3cc4c(cc3OC(N3CCCC3)C2C)OCO4)cc(OC)c1O (stereo not drawn)	> 100	–
Cc1ccccc1N1C(=O)/C(=C/c2ccc(N(CCC#N)CCC#N)cc2)N=C1c1cc([N+](=O)[O-])ccc1Cl	> 100	–
O=C1OC(c2ccccc2)=N/C1=C/C=C/c1ccco1	> 100	–
CC(=O)OCCn1cnc2nc(Nc3ccccc3)nc(Cl)c21	> 100	–
O=[N+]([O-])c1ccccc1S(=O)(=O)c1cc(Cl)cc2c1NCCC2	> 100	–
CC1(CCCO)CCCCCC(C)(CCCO)C1=O (stereo not drawn)	> 100	–
CCc1nc(N)nc(N)c1-c1ccc2nn(-c3ccccc3)[n+]([O-])c2c1	53.9	–
O=C1NC(=Nc2ccccc2)S/C1=C\c1ccc2ncccc2c1	> 25	> 25
COCCOc1cc(F)c2c(Nc3ccc(NC(=O)Cn4cc(C(C)C)nn4)cc3)ncnc2c1	> 100	> 100
COc1cc(C(=O)c2cc(C)c3[nH]c4ccc(Cl)cc4c3c2C)cc(OC)c1OC	23.4	0.0648
C[C@H]1c2cccc(O)c2C(O)=C2C(=O)[C@]3(O)C(O)=C(C(N)=O)C(=O)[C@@H](N(C)C)[C@@H]3[C@@H](O)[C@@H]21	12.5	3
C=C(C=O)[C@@H]1C2OC(=O)C(=C)[C@@H]2CC(O)[C@@]1(C)CC (stereo partly drawn)	53.5	–
CCN(CC)c1c(N(CC)CC)c(=O)c1=O	62.6	–
COc1cc(-c2cc(=O)c3c(OC)c(OC)c(OC)c(OC)c3o2)c(OC)c(OC)c1OC	> 100	–
CCOC(=O)/C=C/C(C(=O)/C=C/c1ccc(OC2CCCCO2)c(OC)c1)=C(O)\C=C\c1ccc(OC2CCCCO2)c(OC)c1 (stereo not drawn)	40.9	12.8
COc1ccc(C2CC(c3cccc(Nc4ccncc4)c3)=NN2c2cc(Cl)cc(Cl)c2)cc1 (stereo not drawn)	4.25	1.85
Clc1ccc2c(NCCCNc3nccc(Nc4ccc(Br)cc4)n3)ccnc2c1	3.13	1.59

SMILES	TGI [µM]	GI50 [µM]
COc1cc(C[S+]2CCCC2)c(SC)cc1C[S+]1CCCC1	> 100	–
COc1ccc(OC)c(NC(=O)C(=O)NNC(=O)c2sc(NNC(C)=O)nc2C)c1	> 100	–
CC1CC(N)=Nc2ccccc2N1 (stereo not drawn)	> 100	–
Cc1cc(N(CCC#N)CCC#N)ccc1/C(N=Nc1ccc([N+](=O)[O-])cc1)=N\NC(=O)c1cc(Cl)ccc1C(=O)c1ccccc1	> 100	–
CCCCOC(=O)C1C(c2ccc(Cl)cc2)NC(c2ccc(Cl)cc2)C(C(=O)OCCCC)S1(=O)=O (stereo not drawn)	> 100	–
O=[N+]([O-])c1ccc(C=C2C(Cl)=C(Cl)C(Cl)=C2Cl)cc1	8.51	2.43
CC(C)(C)OC(=O)NCC(=O)OCc1ccccc1	> 100	–
COC(C)(C)C1=CCC(C)CC1 (stereo not drawn)	> 100	–
NC(CCCCP(=O)(O)O)C(=O)O (stereo not drawn)	> 100	–
Cc1c2cccnc2c(C)c2c1c1cc(CO)ccc1n2C	13.5	1.81
O=C(Nc1ccc(OS(=O)(=O)c2ccccc2)cc1)C12CC3CC(CC(C3)C1)C2	> 100	> 100
COC(=O)/C=C/c1cc(O)c2oc(-c3ccc(O)c(O)c3)c(C(=O)OC)c2c1	23	10
C=CCNC1=C2C[C@@H](C)C[C@@H](OC)[C@H](OC(=O)CCCCN)[C@H](C)/C=C(\C)[C@@H](OC(N)=O)[C@H](OC)/C=C\C=C(/C)C(=O)NC(=CC1=O)C2=O	25.6	–
CCc1nc(N)nc(N)c1-c1ccc(Cl)c(Cl)c1	> 100	–
O=S(O)CCCCSSCC(O)C(O)CSSCCCCS(=O)O (stereo not drawn)	> 100	–
C=C(C=O)C1CCC2(C(=O)O)CCC3(C)C(CCC4C5(C)CCC(O)C(C)(C)C5CCC43C)C12 (stereo not drawn)	19.4	4.87
CCOc1nc(-c2ccccc2)cc2c(O)c(-c3nnco3)[nH]c(=O)c12	> 100	5.37
COc1ccc(C2CC(=O)CC(c3ccc(OC)cc3)C23C(=O)NC(=O)NC3=O)cc1 (stereo not drawn)	46.6	–
O=[N+]([O-])c1ccc(Cl)c(C=NC23CC4CC(CC(C4)C2)C3)c1	> 10	–
Cc1nc2ccccc2c(=O)n1NC(=O)c1ccc(CS)cc1	> 100	–
CCC(C)(C)/C(CC(O)(C(F)(F)F)C(F)(F)F)=N\O	> 100	–
CCOC(=O)C1=CC(C)(C(=O)OCC)Nc2c(nc(OC)n(C)c2=O)N1 (stereo not drawn)	> 10	–
COc1ccc(C(=O)c2cc(OC)c(C)c(OC)c2)cc1OC(=O)CCl	> 100	0.583
O=C(O)/C=N\Nc1nc2ccccc2[nH]1	> 100	–
O=C(OCc1ccc2cccc(O)c2n1)N1CCN(C(=O)c2cc3cc(F)ccc3[nH]2)CC1	4.52	1.66

SMILES	TGI [µM]	GI50 [µM]
COc1ccc(C(=O)Sc2c(-c3ccccc3)c(=O)n(-c3ccccc3)c(=S)n2-c2ccccc2)cc1	> 100	–
COC(=O)C1=C(C)N(NC(=O)c2ccccc2)C(C)(O)C12CCOC2=O (stereo not drawn)	> 100	–
NCCCNc1nc2ccccc2c2c(=O)c3cc(OC(F)(F)F)ccc3sc12	2.96	1.6
O=[N+]([O-])c1cc2oc(COc3ccccc3)nc2cc1Cl	> 100	–
O=[N+]([O-])c1nccn1CC(O)c1ccc(F)cc1 (stereo not drawn)	> 100	–
CCCCc1c(OC)cc(O)c2c1C(=O)c1[nH]c(C(=O)O)c(O)c(=O)c1C2=O	> 100	–
NC(=O)C(N)Cc1ccc(O)cn1 (stereo not drawn)	> 100	–
COc1ccc(NC(=O)CCc2cc(-c3ccc(O)c(OC)c3)nc(NC#N)n2)cc1	> 100	–
CC(C)(C)c1cc(C(P(=O)(c2ccccc2)c2ccccc2)P(=O)(c2ccccc2)c2ccccc2)cc(C(C)(C)C)c1O	> 8.86	–
O=C(O)CNc1cc(-c2ccccc2)nc(NCC(=O)O)n1	> 100	–
O=Cc1ccc2c(c1)CC1(C2)Cc2ccc3c(c2C1)CCC3 (stereo not drawn)	54.1	–
COc1cc(Nc2cn[nH]c2-c2ccc(Cl)cc2)cc(OC)c1OC	> 100	18.2
Nc1nc(Cl)c(N)c(NC23CC4CC(CC(C4)C2)C3)n1	7.29	–
Cc1ccc(S(=O)(=O)Oc2cc(-c3ccccc3)nc3ccccc23)cc1	21.4	–
CCOC(=O)C1=C(C)N(C)C23OC4(C(=O)OC)CC2c2ccccc2C1N3C4=O (stereo not drawn)	> 100	–
C/C(=C\CCc1ccoc1)CC/C=C(\C)CCCC1=CC(=O)OC1	> 100	21.1
CC(O)C(N=Cc1ccccc1[O-])C(=O)[O-].CC(O)C(N=Cc1ccccc1[O-])C(=O)[O-].[Co+2] (stereo not drawn)	> 100	> 100
COC(=O)C(C(=O)C(=O)Nc1cccc(OC)c1)c1cnc2ccccc2n1 (stereo not drawn)	> 100	–
CCN(CC)CCOc1ccc(/C=C(\C#N)c2ccc(OCCN(CC)CC)cc2)cc1	56.4	–
O=C(Nc1nc2ncn(CCI)c2c(=O)[nH]1)c1ccccc1	> 100	–
CS(=O)(=O)Nc1ccc(N2Cc3cnc4ccc5[nH]ccc2c5c34)cc1	55.8	–
C=C(F)C(=O)N1CCN(c2nc(OC[C@@H]3CCCN3C)nc3c2CCN(c2cccc4cccc(Cl)c24)C3)C[C@@H]1CC#N	5.86	1.73
O=S(=O)(c1ccccc1)n1c2cc3cccnc3nc2c2cccnc21	> 100	–
COC(=O)C12C3C4C1C1C2C3C41C(=O)OC(C)(C)C (stereo not drawn)	> 100	–
Cc1cccc(-c2nc3ccc([N+](=O)[O-])cc3c(=O)o2)c1	> 100	–

SMILES	TGI [µM]	GI50 [µM]
COc1cc(Nc2cnc3cc(F)c(F)cc3n2)cc(OC)c1OC	> 100	–
COc1ccc(C(C)NNC(=O)c2ccncc2)c(OC)c1 (stereo not drawn)	> 100	–
COc1ccc(N2C(=O)C(c3ccccc3)(c3ccccc3)C23C(=O)N(C)c2ccccc23)cc1 (stereo not drawn)	> 100	> 100
CC(=O)Nc1cc(C(=O)Nc2cc(C(=O)N3CC(CCl)c4c3cc(N)c3ccccc43)nn2C)nn1C (stereo not drawn)	0.9	–
N#CSC#Cc1ccc(C#CSC#N)cc1	> 100	–
NC(=NCCCOc1ccc(Cl)cc1)Nc1ccc(C(F)(F)F)cc1	12	3.17
CC(=O)n1nc(-c2ccccc2)n(/N=C/c2ccc([N+](=O)[O-])cc2)c1=O	> 100	–
CCCCCCCCCC/C=C/CC(=O)SCCNC(=O)CCNC(=O)[C@@H](O)C(C)(C)COP(=O)(O)OP(=O)(O)OCC1OC(n2cnc3c(N)ncnc32)C(O)C1OP(=O)(O)O (stereo partly drawn)	> 10	–
NC(N)=NCCN=C(N)N	> 100	–
C[C@]12C=CC(=O)C=C1CC[C@H]1[C@@H]3C[C@@H](O)[C@](O)(C(=O)CO)[C@@]3(C)C[C@H](O)[C@@]12F	> 100	–
CC1=C(C#N)C(C#N)(C#N)C(NN(C)C)C1 (stereo not drawn)	> 100	–
CNCCCn1cc(C2=C(c3cn(C)c4ccccc34)C(=O)NC2=O)c2ccccc21	16.5	5.09
O=NN(CCCl)C(=O)NC1CCSc2ccccc21 (stereo not drawn)	> 100	–
O=C(NCCCCCCNC(=O)c1cccc2ccccc12)Nc1cccc2ccccc12	> 100	–
CCN1CCN(c2ccc(Nc3cc(N(C)C(=O)Nc4c(Cl)c(OC)cc(OC)c4Cl)ncn3)cc2)CC1	15.5	2.69
CC(C)(Cc1ccccc1)NC1=NCCO1	> 100	–
CC(=O)c1c2c(cc3c1CC1(Cc4ccccc4C1=O)C3)CCC2 (stereo not drawn)	> 100	–
CCC[CH2][Ge]([CH2]CCC)([CH2]CCC)[O]C(=O)CC(=O)c1ccccc1	20.8	5.71
O=C1CCCC/C(=C/c2ccccc2)N1	> 100	–
CNC(=S)NC1CCCCC1NC(=S)NC (stereo not drawn)	> 100	–
Cc1ccc(S(=O)(=O)N/N=C/C(=C/c2ccc(Cl)cc2)CC(/C=N/NS(=O)(=O)c2ccc(C)cc2)=C\c2ccc(Cl)cc2)cc1	> 100	–
C[N+](C)([O-])CCC=C1c2ccccc2CCc2ccccc21	> 100	–
